In PubChem BioAssay AID540267 (National Center for Advancing Translational Sciences (NCATS), 2011):
Among all 340,000 compounds or so, about 530 (0.16%) were called active. The inconclusive results got no clear call from the source; some entries with a clear call stand among them for comparison. Rule as the data show it: active = activity change below about -80%; inconclusive = between about -30% and that limit; inactive = weaker than that.
% is scaled to controls: 0 for no effect and ±100 for the full control effect.

Experiment: Small Molecules that selectively kill Giardia lamblia: qHTS;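 also: parasites exposed to compound for two days anaerobically before the ATP read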
Settings: Giardia lamblia trophozoite viability; at 7.66 µM; stronger effect = lower value
Method in brief: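 Compounds were tested on trophozoites seeded at 100 cells/well and held 48 hrs at 37 deg C anaerobically. An ATP-based luminescent kit measured the remaining live cells.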
In the case of O=C(Nc1ccc(SC(F)F)cc1)c1ccc(F)cc1, the activity change is reported as inactive: -5.19%.
In the case of CC1(C)OC(=O)C(=Cc2ccc(-c3ccc(S(N)(=O)=O)cc3)o2)C(=O)O1, the activity change is reported as inactive: 6.52%.
For CCOC(=O)c1ccc(N2C(=O)c3n[nH]c(C)c3C2c2ccc(OC)cc2)cc1 (configuration not stated), the activity change was inactive: 4.33%.
In the case of CCOC(=O)Cc1csc(NC(=O)c2cc(C)on2)n1, the activity change is reported as inconclusive: -35.5% [inhibitor].
For O=[N+]([O-])c1cccc(S(=O)(=O)/N=C(/Nc2ccccc2)c2ccccc2)c1, the activity change was inconclusive: -32.3% [inhibitor].
With CCc1ccc(OCC2c3cc(OC)c(OC)cc3CCN2C(=S)NC)cc1 (configuration not stated) the activity change was inactive: 3.75%.
With C=CCN(c1ccccc1)S(=O)(=O)c1cccc(C(=O)OCC(=O)NCCOC)c1 the activity change was inconclusive: -36% [inhibitor].
With N#CC(C#N)=Cc1ccc(OCC(=O)N2CCOCC2)cc1 the activity change was inactive: 23%.
With O=[N+]([O-])c1cccc(COc2ccccc2CN2CCCC2)c1 the activity change was inconclusive: -48.3% [inhibitor].
In the case of Cc1cc(C(=O)COC(=O)c2cccnc2Cl)c(C)n1CC1CCCO1 (configuration not stated), the activity change is reported as inconclusive: -65.7% [inhibitor].
For Cc1noc(NS(=O)(=O)c2ccc(NC(=O)c3ccc(N4C(=O)c5ccccc5C4=O)cc3)cc2)c1C, the activity change was inactive: -19.8%.
In the case of CCc1ccccc1OCC(=O)Nc1ccc(N2CCCC2)cc1C, the activity change is reported as inconclusive: -31.7% [inhibitor].
In the case of O=C(Nc1cccc(Cl)c1)c1cc(S(=O)(=O)N2CCOCC2)cs1, the activity change is reported as inactive: 17.5%.
In the case of CC(=O)c1c(C)[nH]c(C(=O)OCC(=O)Nc2cc(Cl)ccc2[N+](=O)[O-])c1C, the activity change is reported as inconclusive: -66.9% [inhibitor].
With Cc1ccc(NC(=S)Nc2cccc(S(=O)(=O)Nc3c(C)n(C)n(-c4ccccc4)c3=O)c2)cc1 the activity change was inactive: 4.87%.
In the case of O=C(CCl)N1c2ccccc2Oc2ccc3ccccc3c21, the activity change is reported as inactive: 3.2%.
For CC(NC(=O)C12CC3CC(CC(C3)C1)C2)C(=O)NN=Cc1ccc([N+](=O)[O-])o1 (configuration not stated), the activity change was active: -93%.
With CC1(c2ccccc2)CC(C)(C)n2c(O)c(C3=NC(=S)NC3=O)c3cccc1c32 (configuration not stated) the activity change was inactive: 0.258%.
For C/C=C(/C)C(=O)O[C@H]1CC(C)=CC(=O)[C@@]2(C)CC[C@@](O)(C(C)C)[C@H]12, the activity change was inconclusive: -34.3% [inhibitor].
With O=C(NC(=S)Nc1ccccn1)c1ccc(-c2ccccc2)cc1 the activity change was active: -89.9%.
For Cc1ccc(NC(=O)c2ccc(F)cc2)nc1, the activity change was inconclusive: -32.9% [inhibitor].
With CCc1nnc(N/N=C/c2c(Cl)cccc2Cl)n1N the activity change was inactive: -10.3%.
